Assay results reported in ChEMBL document CHEMBL1201862, “PubChem BioAssay data set” (2004).
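Cells were grown in 96-well plates and exposed to each compound for 48 hours at five concentrations; endpoints were interpolated linearly between bracketing concentrations, or set to the highest concentration if not reached. Here, GI50 denotes the concentration required for 50% inhibition of growth.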 The source made the active and inactive calls. No stated cut-off is given here; in the data, active = GI50 up to about 1.1 µM and inactive = higher. Numbered stars: 1 amine (or outer) side, 2 acyl side, 3 side chain; on linkers, the order of the positions; unused ones are H or OH. Square brackets hold non-standard residues; d marks the D form. Peptide text beside a SMILES is read from it. * marks the point of attachment. γGlu = O=C(O)[CH](CCC(=O)[*:2])N[*:1]; Boc = CC(C)(C)OC(=O)*; Lac = C[CH](O)C(=O)O; OBn = c1ccc(CO*)cc1; NHOH = ON*

Tested on: NCI-H322M
Experiment: DTP human tumour cell line panel, 48 h

**Q.** With `O=[N+]([O-])/C(C(Cl)=C(Cl)Cl)=C(/Cl)Sc1ccccc1` as the compound, how does the GI50 read?
**A.** inactive: 17.3 µM

**Q.** `Cc1[nH]c(O)nc1C(=O)c1ccc(-n2ccnc2)cc1` was tested. Which GI50 did it give?
**A.** inactive: > 100 µM

**Q.** For `Nc1nonc1-c1noc(-c2nonc2N)[n+]1[O-]`, which GI50 is on record?
**A.** inactive: > 100 µM

**Q.** For `CCOC(=O)c1ccc(/N=C\c2ccc(N(CCC#N)CCC#N)cc2)cc1`, which GI50 is on record?
**A.** inactive: > 100 µM

**Q.** Which GI50 does the source give for `COP1(=O)Oc2ccccc2C(=O)C(C(F)(F)F)(C(F)(F)F)O1` (centres undefined) here?
**A.** inactive: > 100 µM

**Q.** `COc1ccc(Cc2ccc3nc(O)cc(C)c3c2)cc1S(=O)(=O)O` was tested. Which GI50 did it give?
**A.** inactive: > 100 µM

**Q.** Which GI50 does the source give for `O=C(O)CC12CC3CC(CC(O)(C3)C1)C2` here?
**A.** inactive: > 100 µM

**Q.** With `O=S(O)CCCSSSCCCS(=O)O` as the compound, how does the GI50 read?
**A.** inactive: > 100 µM

**Q.** `COc1ccc(C(CC(=O)C(C)(C)CN2CCCCC2)SCCS(=O)(=O)O)cc1` (centres undefined) was tested. Which GI50 did it give?
**A.** inactive: 38 µM

**Q.** With `CC1=C(C(=O)OC(C)C)C(c2cccc([N+](=O)[O-])c2)C(C(=O)OC(CO[N+](=O)[O-])CO[N+](=O)[O-])=C(C)N1` (centres undefined) as the compound, how does the GI50 read?
**A.** inactive: 25.2 µM

**Q.** Which GI50 does the source give for `CCOC(=O)c1c(N2CCCC2)[nH]c(=O)c(C(c2c(O)c(C(=O)OCC)c(N3CCCC3)[nH]c2=O)C(C)C)c1O` here?
**A.** inactive: > 100 µM

**Q.** With `Cc1c2oc3c(C)cc(F)c(C(=O)NC4C(=O)NC(C(C)C)C(=O)N5CCCC5C(=O)N(C)CC(=O)N(C)C(C(C)C)C(=O)OC4C)c3nc-2c(C(=O)NC2C(=O)NC(C(C)C)C(=O)N3CCCC3C(=O)N(C)CC(=O)N(C)C(C(C)C)C(=O)OC2C)c(N)c1=O` (centres undefined) as the compound, how does the GI50 read?
**A.** active: 0.00371 µM

**Q.** `CCSC1=C(C)N(/C=N/C(C)(C)C)CC1` was tested. Which GI50 did it give?
**A.** inactive: > 100 µM

**Q.** Which GI50 does the source give for `O=C(c1ccc(Cl)cc1Cl)N(C(=O)N1CCC(c2ccccc2)CC1)c1ccccc1` here?
**A.** inactive: > 100 µM

**Q.** For `CNC/C(Cl)=N/S(=O)(=O)c1ccc(C)cc1`, which GI50 is on record?
**A.** inactive: 30.1 µM

**Q.** Which GI50 does the source give for `O=C1c2c(F)c(F)c(F)c(F)c2SC2=Nc3cccc4cccc(c34)N12` here?
**A.** inactive: 14.1 µM

**Q.** `O=C(Nc1ccccc1Cl)c1cc(S(=O)(=O)Nc2n[nH]c(=O)n2-c2ccccc2)c(S)cc1Cl` was tested. Which GI50 did it give?
**A.** inactive: > 100 µM

**Q.** With `CC(OC(=O)C(Cc1ccccc1)NC(=O)C(Cc1ccccc1)NC(=O)OC(C)(C)C)C(=O)OCc1ccccc1` (stereo not drawn) (Boc-Phe-Phe-[Lac]-OBn; configuration not given here) as the compound, how does the GI50 read?
**A.** inactive: > 100 µM

**Q.** `CC(=O)NNc1nc(C)c(C(=O)NNC(=O)C(=O)Nc2ccc(Cl)c([N+](=O)[O-])c2)s1` was tested. Which GI50 did it give?
**A.** inactive: 62.8 µM

**Q.** How did the GI50 turn out when `COC(=O)C1=CC2CCCC1(O)C(C(C)=O)C2` (centres undefined) was run?
**A.** inactive: > 100 µM

**Q.** `CCOC(=O)CCc1ccc(NC(=O)/C=C/c2ccc([N+](=O)[O-])o2)cc1` was tested. Which GI50 did it give?
**A.** inactive: 1.8 µM

**Q.** How did the GI50 turn out when `O=C1CC[C@@H](C(=O)N2CSC[C@H]2C(=O)O)N1` [PIDOTIMOD] (HELM PEPTIDE1{[Glp].[O=C(O)[C@@H]1CSCN1[*:1]]}$$$$V2.0) was run?
**A.** inactive: > 100 µM

**Q.** How did the GI50 turn out when `O=C(O)c1ccc(NC(NC(=O)C(C(F)(F)F)C(F)(F)F)(C(F)(F)F)C(F)(F)F)cc1` was run?
**A.** inactive: > 100 µM

**Q.** Which GI50 does the source give for `C=C1C(OC(C)=O)CC(OC(C)=O)C2(C)C(OC(C)=O)C(OC(C)=O)C3=C(C)C(OC(=O)/C=C/c4ccccc4)CC(C(OC(C)=O)C12)C3(C)C` (centres undefined) here?
**A.** inactive: > 100 µM

**Q.** Which GI50 does the source give for `Cc1cc(N(CCC#N)CCC#N)ccc1/C(Sc1ccccc1)=C(\NC(=O)/C=C/c1ccccc1)C(=O)Sc1ccccc1` here?
**A.** inactive: 5.79 µM

**Q.** With `Nc1nc2c(c(=O)[nH]1)C(c1ccc(Cl)cc1)C=C(c1ccccc1)N2` (centres undefined) as the compound, how does the GI50 read?
**A.** inactive: 37.2 µM

**Q.** How did the GI50 turn out when `Cc1c(N)nc(C(CC(N)=O)NCC(N)C(N)=O)nc1C(=O)NC(C(=O)NC(C)C(O)C(C)C(=O)NC(C(=O)NCCc1nc(-c2nc(C(=O)NCCCNCCCCN)cs2)cs1)C(C)O)C(OC1OC(CO)C(O)C(O)C1OC1OC(CO)C(O)C(OC(N)=O)C1O)c1c[nH]cn1` (centres undefined) was run?
**A.** inactive: > 10 µM

**Q.** With `COc1cc2c(c(OC3OC(CO)C(O)C(O)C3O)c1)C(=O)CC(c1ccc(O)cc1)O2` (centres undefined) as the compound, how does the GI50 read?
**A.** inactive: > 100 µM

**Q.** Which GI50 does the source give for `CCOC(=O)CNC(=O)C(CCC(=O)NO)NC(=O)CCC(N)C(=O)O` (centres undefined) (γGlu-Glu(NHOH)-Gly-OEt; configuration not given here) here?
**A.** inactive: > 100 µM
